Measured values published in the supplement of paper PMC3334620.
Over roughly 33,000 sequences, “E-score (-0.5 to 0.5)” has its median near -0.043; the highest 2% begin near 0.37. The list shows a part of the results.

Each sequence was assayed against T1, Upc2 (UniProt Q12151) (assay: PBM E-score (8-mer binding enrichment) (E-score (-0.5 to 0.5)); higher = stronger / more preferred TF binding; most listed sequences are background and not binding sites). Conditions: protein concentration: 200 nM; construct: GST-full length.
T1 sequence: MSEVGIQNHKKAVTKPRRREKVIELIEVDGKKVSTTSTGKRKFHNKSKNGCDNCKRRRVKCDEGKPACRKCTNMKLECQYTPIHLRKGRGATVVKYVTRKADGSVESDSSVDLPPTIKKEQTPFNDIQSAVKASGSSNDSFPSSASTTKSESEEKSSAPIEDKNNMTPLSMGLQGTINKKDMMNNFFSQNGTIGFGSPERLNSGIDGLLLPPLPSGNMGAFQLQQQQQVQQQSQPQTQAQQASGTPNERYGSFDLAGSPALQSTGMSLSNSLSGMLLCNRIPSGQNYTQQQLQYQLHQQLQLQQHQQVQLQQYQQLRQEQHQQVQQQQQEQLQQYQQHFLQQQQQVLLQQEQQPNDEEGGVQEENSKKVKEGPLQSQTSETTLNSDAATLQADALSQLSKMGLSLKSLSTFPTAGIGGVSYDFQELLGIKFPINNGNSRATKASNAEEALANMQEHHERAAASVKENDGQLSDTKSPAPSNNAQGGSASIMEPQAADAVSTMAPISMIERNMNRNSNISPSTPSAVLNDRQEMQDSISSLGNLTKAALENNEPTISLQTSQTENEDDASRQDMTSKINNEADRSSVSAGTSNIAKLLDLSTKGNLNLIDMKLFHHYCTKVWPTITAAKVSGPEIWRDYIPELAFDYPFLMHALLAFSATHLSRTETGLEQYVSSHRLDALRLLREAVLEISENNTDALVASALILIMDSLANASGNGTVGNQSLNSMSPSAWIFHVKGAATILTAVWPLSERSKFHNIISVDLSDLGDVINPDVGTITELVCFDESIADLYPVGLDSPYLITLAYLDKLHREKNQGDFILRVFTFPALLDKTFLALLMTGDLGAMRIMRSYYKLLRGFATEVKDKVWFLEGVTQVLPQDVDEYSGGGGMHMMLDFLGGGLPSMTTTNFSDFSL
Procedure, shortened: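 Universal all-10-mer Agilent arrays, double-stranded by primer extension on fresh or once-stripped slides, were probed with about 100-200 nM GST-tagged yeast transcription factors made by PURExpress. Fluorescent anti-GST detected bound protein, and masliner normalised the scans. E-scores from the Universal PBM Analysis Suite were given to each ungapped eight-base word pooled with its reverse complement.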

| Sequence | PBM E-score |
| --- | --- |
| GCAGTGAA | 0.111 |
| CAGTACTC | -0.113 |
| CACACATA | -0.16 |
| CACATGAA | -0.11 |
| ATAAGAAC | 0.136 |
| TCTTCGAA | 0.0637 |
| CTAAGAAC | -0.0479 |
| AACTTATA | 0.165 |
| ATCAGCGG | -0.0474 |
| CAGCACGG | -0.256 |
| ACGAGTAG | 0.368 |
| AGGCTCTC | -0.123 |
| CCCTAGTC | -0.223 |
| CCACCGTA | 0.399 |
| GAAGGCTC | -0.283 |
| CTGACGCA | -0.268 |
| GATTAGCC | 0.0747 |
| CAATGCCG | -0.121 |
| TATTCTCA | -0.199 |
| AAATACGG | 0.266 |
| AATTTGCC | -0.18 |
| CTTCGACC | -0.102 |

| Sequence | PBM E-score |
| --- | --- |
| ATACCAAT | -0.0565 |
| AGCAGTGC | -0.138 |
| TTGCGCAA | -0.00115 |
| TAGGCGGA | -0.00475 |
| CGGTGGGC | -0.134 |
| CAACCTTG | -0.129 |
| AATTTACT | -0.0105 |
| TAGGGTCA | -0.109 |
| ACATCGAC | -0.131 |
| AACTTCGA | -0.0227 |
| CTCAGATA | 0.0252 |
| AGAACGTG | -0.00321 |
| AATAACAT | 0.0313 |
| CTTATTGC | -0.223 |
| AAGTATGT | -0.202 |
| CAGGCGCA | -0.154 |
| AGGCGCAA | 0.0208 |
| TTCCGCAA | 0.114 |
| ATCCGAAG | 0.237 |
| ATATCCCG | 0.0433 |
| CCCGGACG | -0.134 |
| ATCACCAA | -0.0318 |

| Sequence | PBM E-score |
| --- | --- |
| AGACCGCC | -0.168 |
| CGCATTTA | 0.0301 |
| CCCAGAGG | -0.223 |
| ATCCCACC | -0.0175 |
| CTTGTAGA | -0.27 |
| CGAACTAG | 0.111 |
| CAGTTTCA | -0.223 |
| CGTCTATC | 0.0488 |
| GTACCCAC | 0.0606 |
| CATAGTAC | 0.0276 |
| GAACCCTC | -0.0534 |
| GGTTCCGA | -0.0978 |
| CTTCCGCC | -0.234 |
| ATCATTGA | -0.00619 |
| ATGAGAGC | -0.213 |
| GTATGACA | 0.153 |
| GAACTTAA | 0.127 |
| AGGCACGC | -0.0907 |
| TTAACGAA | 0.448 |
| GTTTGCTA | 0.0775 |
| CCACTATC | -0.161 |
| GTAACATA | 0.0875 |

| Sequence | PBM E-score |
| --- | --- |
| CCGGGGTC | -0.0755 |
| ATCAAGGC | -0.0329 |
| ATGGCTGG | -0.144 |
| ACATCCGT | 0.246 |
| CTCAGCAC | -0.0932 |
| CACCAGCA | -0.0717 |
| ACGCAACA | 0.108 |
| GATCACCA | -0.0596 |
| CGGGTTGA | 0.0655 |
| CCTGGAAA | -0.0648 |
| AAACGGCC | 0.359 |
| GTTCCCTA | 0.139 |
| ACTACGAA | 0.185 |
| GCTACCTA | -0.0899 |
| GTGATGCA | -0.118 |
| GTGGAGAA | -0.163 |
| TACGCGTA | 0.321 |
| CCTTCGCA | 0.0293 |
| CGTCCGTC | -0.226 |
| AGTCCGCA | -0.156 |
